Measurements taken from PubChem BioAssay AID1508623 (National Center for Advancing Translational Sciences (NCATS), 2021).
Hit rate of the full screen: of about 48,000 compounds, about 450 (0.94%) were called active. Another 19% or so got no clear call; they are omitted. The call rests on the fitted dose curve; in most records, active means well fitted inhibition curve with a large enough effect; inconclusive means small, poorly fitted or top-dose-only effect; inactive means no such curve, though single readings can be large or run the other way. The list shows a part of the results.

Test: Primary qHTS for Identification of Small Molecule Inhibitors of Huntingtin Promoter Activity; further: nearly all actives have a fitted effect of over 50% in size
Details: HEK293 HTT promoter firefly luciferase reporter (activity 0% = vehicle and -100% = no light), 24 h; series mostly up to 57.5 µM; activity change, negative = inhibition: at the top concentration
Method in brief: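 Luminescence was read after Dual-Glo reagent and a 10 min room-temperature incubation. Values were normalized to vehicle (0% activity) and zero RLU (-100% activity). Reporter HEK293 cells had been exposed to compounds (up to 57.5 uM final) for 24 h.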

Activity change, negative = inhibition, inactive:
Cc1cccc(CCNC(=O)CCS(=O)(=O)c2cc3c(cc2Cl)NC(=O)CO3)c1 -15.1%
COc1ccc(C)cc1Nc1nc2ccccc2c2nnc(C)n12 -7.52%
CCOc1ccc(CNC(=O)CCC(=O)N2CC3CCCN3c3ccccc32)cc1 (centres undefined) 10.8%
CCN1CCN(C(c2cccc(F)c2)c2c(O)cc(C)n(CCOC)c2=O)CC1 (centres undefined) -12.1%
COc1ccc(Cl)cc1NC(=O)c1cc(S(=O)(=O)N2CCC(C)CC2)cn1C -7.46%
CCc1nc2cccnc2n1-c1ccc(CC(=O)Nc2ccccc2Cl)cc1 -30.7%
Cc1cccc(NC(=O)CSc2nc3c(oc4ccccc43)c(=O)n2Cc2ccco2)c1 -14.3%
C=C[C@H]1CN2CC[C@H]1C[C@H]2[C@H](O)c1ccnc2ccc(OC)cc12 12.8%
CC(C)C(=O)Nc1ccc2nc(SCC(=O)N3CCOCC3)sc2c1 1.83%
Cc1ccc(C)n1-c1nnc(N2CCC(C(=O)NCc3ccc(F)cc3)CC2)s1 -27.7%
CCOC(=O)c1c(N)n(-c2ccccc2CC)c2nc3ccccc3nc12 2.18%
Cc1ccc(N2CC(c3nnc(NC(=O)c4ccco4)s3)CC2=O)cc1Cl (centres undefined) -7.06%
O=S(=O)(c1ccc(Br)cc1)c1nnn2c1nc(NC1CCCCCC1)c1sccc12 -7.2%
CCC(=O)Nc1sc2c(c1C(=O)Nc1ccccc1C)CCC(C)C2 (centres undefined) -22.3%
Cn1c(=O)c2sccc2n2c(CCC(=O)N3CCN(c4ccccc4)CC3)nnc12 0.96%
Cc1ccc(-n2nc3ccc(NC(=O)c4cc5ccccc5o4)cc3n2)cc1 31.5%
O=C(O)c1cc(=O)[nH]c(=O)[nH]1
COC(=O)c1ccccc1NC(=O)c1noc2c1CSc1ccccc1-2 -6.98%
COc1ccc2nc(NC(=O)c3ccc(S(=O)(=O)N4CCC(C)CC4)cc3)sc2c1 -28.2%
CCc1ccc(NC(=O)N2CCN(Cc3cc(=O)n4nc(-c5ccccc5OC)sc4n3)CC2)cc1 0.505%
CCOC(=O)c1cccc(NC(=O)NCCc2c(C)nn(C)c2C)c1 2.67%
COC(=O)c1cc2occc2n1CC(=O)Nc1cccc(SC)c1 -18%
CC(=O)NCCCCCC(=O)O 5.38%
CCn1c(=N)c(C(=O)NCc2cccnc2)cc2c(=O)n3cc(C)ccc3nc21 -5.7%
COc1ccc(-c2nc(CSCC(=O)NCCc3ccc(C)cc3)c(C)o2)cc1OC -26.5%
COc1ccccc1Cc1nc2ccccc2nc1SCC(=O)NCCc1ccccc1 -12.2%
CCN(CC)CCCNC(=O)c1c(C)oc2ncnc(N3CCOCC3)c12 -2.2%
CCS(=O)(=O)c1ccccc1C(=O)N(Cc1cccnc1)c1nc2cc(C)c(C)cc2s1 26%
CCc1noc2nc(C)n(CC(=O)O)c(=O)c12 -16.8%
CCOC(=O)Cn1cc2c(c1-c1ccc(Cl)cc1)c(=O)n(C)c(=O)n2C -3.21%
CN(C(=O)CSc1nc2ccccc2n1CC(=O)NCc1ccc(F)cc1)c1ccc(F)cc1 -24.5%
Cc1c(C(=O)NCc2ccc(Cl)cc2)sc2nc3n(c(=O)c12)CCCC3 -6.01%
O=c1n(CCCN2CCN(c3cccc(Cl)c3)CC2)nc2ccccn12
Cc1cccc(-n2c(=O)c3c(c4cc(C)ccc4n3C)n(CC(=O)Nc3ccccc3C(F)(F)F)c2=O)c1 -12.9%
c1ccc(C(c2cccs2)c2c[nH]c3ccccc23)cc1 (centres undefined) -29.8%
Cc1ccc(-c2noc(CN(C3CCCCC3)S(=O)(=O)c3ccc(Cl)cc3)n2)cc1 -1.79%
Cc1ccc(CNc2ncnc3c2c(-c2ccccc2)cn3-c2cccc(Cl)c2)cc1 -18%
COc1ccc(-c2nc3n(n2)C(c2ccccc2F)C(C(=O)Nc2cccnc2)=C(C)N3)cc1OC (centres undefined) -4.53%
CCCCN(C(=O)c1cccc(S(=O)(=O)N2CCCCC2)c1)C1CCS(=O)(=O)C1 (centres undefined) -19.7%
COCCCNC(=O)c1sc2ncccc2c1-n1cccc1 13%
O=C(Nc1ccc(F)c(Cl)c1)N1CCN2CCCCC2C1 (centres undefined) -2.79%
CCN(CC)c1ccc(-c2nc(-c3ccncc3)no2)cc1[N+](=O)[O-] 11.8%
Cc1ccc2cccc(NC(=O)c3cccc4ccccc34)c2n1 -27.1%
O[C@@H](CNC[C@H](O)[C@H]1CCc2cc(F)ccc2O1)[C@@H]1CCc2cc(F)ccc2O1
CCN1C(=O)c2cccc3c(S(=O)(=O)Nc4ccc(O)c(C(=O)O)c4)ccc1c23 -0.285%
CC(C)(C)OC(=O)N1CCC(c2c(C(=O)N3CCc4ccccc4C3)cnn2-c2ccc(Cl)cc2)CC1 -18.4%
CCOc1ccccc1C(=O)N(Cc1ccc(N(C)C)cc1)CC1CCCO1 (centres undefined) 5.23%
CCS(=O)(=O)Nc1cc(-c2cn3ccc(C)cc3n2)ccc1C 57.7%
CCCCNC(=O)CSc1nc2cc3c(cc2c(=O)n1CCCC(=O)NCc1ccc2c(c1)OCO2)OCO3 -14.8%
Cc1ccc(Cl)cc1NC(=O)Cn1c(=O)cc(C)c2c(C)nn(C)c21 -15.9%
Cc1ccc(CNC(=O)CCNS(=O)(=O)c2ccc3c(c2)oc(=O)n3C)cc1 -11.6%
O=C(COc1ccc(Br)cc1Br)Nc1ccc(S(=O)(=O)Nc2ncccn2)cc1 -14.2%
Cc1oc(-c2cccc(Cl)c2)nc1CN1CCC(C(=O)NC(C)C)CC1 1.08%
COc1cccc(C2CC(=O)Nc3c2c(=O)n(C)c2nc4ccccc4n32)c1OC (centres undefined) 0.112%
O=C(CCn1c(=O)c2sccc2n(Cc2ccc(F)cc2)c1=O)NCc1ccc2c(c1)OCO2 -2.86%
Cc1ccc(-n2nc3cc(C)c(NC(=O)c4ccc(-c5ccccc5)o4)cc3n2)cc1 30.5%
Cc1ccc(NC(=O)CC2Oc3ccc(C)cc3NC2=O)c(C)c1 (centres undefined) -18.8%
COc1cccc(Nc2nnc(-c3cc4ccc(O)cc4oc3=O)s2)c1 5.07%
CCOc1ccc(NC(=O)Cn2c(=O)n(CCc3ccccc3)c(=O)c3c4c(sc32)CCCC4)cc1 -3.52%
CC(=O)c1ccc(NC(=O)Cn2nc(C(F)(F)F)c3c2CCC3)cc1 9.28%
O=C(Cn1ncc2c3ccccc3n(Cc3ccccc3)c2c1=O)NCc1cccs1 7.46%
CCOC(=O)C1=C(CN2CCN(c3ccc(Cl)cc3)CC2)NC(=O)NC1c1ccc(OC)cc1 (centres undefined) -20.1%
Cc1ccc(Cl)cc1N1CCN(C(=O)Cn2cnc3onc(-c4ccc(F)cc4)c3c2=O)CC1 -21.4%
CCCCNC(=O)CCC1N=C2c3ccccc3N=C(SCC(=O)NCCc3ccc(OC)c(OC)c3)N2C1=O (centres undefined) -15.6%
